Among the data in the antibiotic and cytotoxicity screens of Wong et al. (2023) are cytotoxicity call and growth inhibition call values, retold here.

Some of the results follow.

One assay deals with HSkMC. Put plainly: cytotoxicity call (relative viability < 0.9). The note with it: 10 µM.
A further assay deals with S. aureus RN4220. Nature of the assay: growth inhibition call (relative growth <= 0.2). Conditions: 50 µM.

As for `Fc1ccc(Nc2ncnc3sc(-c4ccccc4)cc23)cc1`, in the assay with HSkMC, the cytotoxicity call was “active”. Further, the growth inhibition call in the assay with S. aureus RN4220 was “inactive”.
The corresponding values for `COCC(=O)N1C[C@H](C)[C@H](OC)CN(C)C(=O)c2cc(NC(=O)c3ccc(OC)cc3)ccc2OC[C@H]1C` are “inactive” and “inactive”.
The corresponding values for `O=C(O)/C=C/c1cnc[nH]1` are “inactive” and “inactive”.
The like results for `C/C=C/C[C@@H](C)[C@@H](O)[C@H]1C(=O)N[C@@H](CC)C(=O)N(C)CC(=O)N(C)[C@@H]([C@@H](C)CC)C(=O)N[C@@H](C(C)C)C(=O)N(C)[C@@H](CC(C)C)C(=O)N[C@@H](C)C(=O)N[C@H](C)C(=O)N(C)[C@@H](CC(C)C)C(=O)N(C)[C@@H](CC(C)C)C(=O)N(C)[C@@H](C(C)C)C(=O)N1C` were, in that order, “inactive” and “inactive”.
With `COCC#Cc1cnc2c(c1)C(=O)N([C@@H](C)CO)C[C@@H](C)[C@H](CN(C)C(=O)Nc1ccc(OC)cc1)O2`, the cytotoxicity call in the assay on HSkMC was “inactive”. The growth inhibition call in the assay with S. aureus RN4220 was “inactive”.
`CC/C(=C\C(=N\O)C(N)=O)[C@@H](C)[N+](=O)[O-]`: the cytotoxicity call with HSkMC is “inactive”. The growth inhibition call in the assay on S. aureus RN4220 is “inactive”.
With `COc1ccc2c3c([nH]c2c1)[C@@H](CO)N(Cc1ccc(cc1)Cl)C[C@]13CCN(CC1)Cc1nccs1`, in the assay with HSkMC, the cytotoxicity call was “inactive”. Also, the growth inhibition call in the assay on S. aureus RN4220 is “inactive”.
For the compound `O=C(O)c1ccc2[nH]cnc2n1`, the cytotoxicity call with HSkMC is “inactive”. The growth inhibition call in the assay on S. aureus RN4220 is “inactive”.
For the compound `O=C(O)C1CCOCC1`, the cytotoxicity call in the assay on HSkMC was “inactive”. Besides, the growth inhibition call in the assay with S. aureus RN4220 was “inactive”.
For the compound `CN(C)S(=O)(=O)N(C)c1ccccc1`, the cytotoxicity call in the assay on HSkMC is “inactive”. Further, the growth inhibition call with S. aureus RN4220 is “inactive”.
For the compound `C[C@H](CO)N1C[C@H](C)[C@@H](CN(C)C(=O)Nc2ccc(N3CCN(C)CC3)cc2)OCc2cnnn2CCCC1=O`, the cytotoxicity call in the assay with HSkMC is “inactive”. Besides, the growth inhibition call with S. aureus RN4220 is “inactive”.
With `O=C(N[C@@H]1CC[C@H](CCNS(=O)(=O)c2ccc(F)cc2)O[C@@H]1CO)C1CC1`, in the assay with HSkMC, the cytotoxicity call was “inactive”. The growth inhibition call with S. aureus RN4220 is “inactive”.
For `C[C@@H]1CC=CC[C@H](c2cccc(Cl)c2)NC(=O)[C@@H](Cc2ccccc2)N(C)C(=O)c2ccccc2O1`, the cytotoxicity call in the assay with HSkMC is “inactive”. For the same compound, the growth inhibition call in the assay on S. aureus RN4220 is “inactive”.
As to `C[C@H]1CN([C@@H](C)CO)C(=O)Cc2cc(NC(=O)Nc3ccc(C(F)(F)F)cc3)ccc2O[C@@H]1CN(C)C(=O)Nc1ccc(C(F)(F)F)cc1`, the cytotoxicity call with HSkMC is “inactive”. The growth inhibition call in the assay with S. aureus RN4220 is “inactive”.
`COc1ccc(S(=O)(=O)Nc2ccc3c(c2)C(=O)N([C@H](C)CO)C[C@@H](C)[C@@H](CN(C)Cc2ccc(Cl)c(Cl)c2)O3)cc1`: the cytotoxicity call in the assay with HSkMC was “inactive”. Further, the growth inhibition call in the assay with S. aureus RN4220 is “inactive”.
For the compound `COc1ccc(NC(=O)Nc2ccc3c(c2)C(=O)N([C@@H](C)CO)C[C@H](C)[C@H](CN(C)C(=O)C2CCCCC2)OCCCC[C@@H](C)O3)cc1`, the cytotoxicity call in the assay with HSkMC was “inactive”. The growth inhibition call in the assay with S. aureus RN4220 was “inactive”.
As to `C[C@@H]1CN([C@H](C)CO)C(=O)Cc2cc(NC(=O)Cc3cn(C)c4ccccc34)ccc2O[C@H]1CN(C)Cc1ccc(Oc2ccccc2)cc1`, the cytotoxicity call in the assay with HSkMC is “inactive”. Also, the growth inhibition call in the assay on S. aureus RN4220 was “inactive”.
On to `Cc1noc(C)c1S(=O)(=O)Nc1ccc2c(c1)C(=O)N([C@H](C)CO)C[C@H](C)[C@@H](CN(C)Cc1ccc3c(c1)OCO3)O2`, for which, in the assay with HSkMC, the cytotoxicity call is “inactive”. In addition, in the assay on S. aureus RN4220, the growth inhibition call was “inactive”.
As to `C[C@H](CO)N1C[C@H](C)[C@H](CN(C)C(=O)Nc2cc(F)ccc2F)Oc2cc(/C=C/c3ccccc3)ccc2S1(=O)=O`, the cytotoxicity call with HSkMC is “inactive”. For the same compound, in the assay with S. aureus RN4220, the growth inhibition call was “inactive”.
In the case of `COc1ccccc1NC(=O)N(C)C[C@@H]1Oc2ncc(C#CCN(C)C)cc2C(=O)N([C@H](C)CO)C[C@@H]1C`, the cytotoxicity call in the assay on HSkMC was “inactive”. In addition, the growth inhibition call with S. aureus RN4220 was “inactive”.
For `C[C@H]1CN([C@@H](C)CO)C(=O)c2cc(NC(=O)CCC(F)(F)F)ccc2O[C@@H]1CN(C)Cc1ccc(C(=O)Nc2ccccc2N)cc1`, in the assay with HSkMC, the cytotoxicity call is “inactive”. Further, the growth inhibition call in the assay with S. aureus RN4220 was “inactive”.
For the compound `Cc1ccc(S(=O)(=O)Nc2ccc3c(c2)C(=O)N([C@H](C)CO)C[C@@H](C)[C@@H](CN(C)S(=O)(=O)c2ccc(Cl)cc2)OCCCC[C@@H](C)O3)cc1`, in the assay with HSkMC, the cytotoxicity call was “inactive”. Also, the growth inhibition call in the assay on S. aureus RN4220 is “inactive”.
In the case of `COc1cccc(C(=O)Nc2ccc3c(c2)C(=O)N(C)[C@@H]2CC[C@H](CC(=O)NCCCN4CCOCC4)O[C@@H]2CO3)c1`, the cytotoxicity call in the assay on HSkMC is “inactive”. For the same compound, in the assay with S. aureus RN4220, the growth inhibition call was “inactive”.
`O=C(C[C@@H]1CC[C@@H]2[C@H](COC[C@@H](O)CN2S(=O)(=O)c2cccc(Cl)c2)O1)NC1Cc2ccccc2C1`: the cytotoxicity call in the assay on HSkMC was “inactive”. Besides, the growth inhibition call in the assay with S. aureus RN4220 is “inactive”.
For the compound `COc1cc(F)c(F)c(Nc2ccc(I)cc2F)c1NS(=O)(=O)C1(C[C@H](O)CO)CC1`, the cytotoxicity call in the assay on HSkMC (human skeletal muscle cells) was “inactive”. Besides, the growth inhibition call in the assay with S. aureus RN4220 is “active”.
The corresponding values for `COc1ccc(S(=O)(=O)Nc2ccc3c(c2)C(=O)N([C@@H](C)CO)C[C@H](C)[C@@H](CN(C)C(=O)Nc2cccc4ccccc24)OCCCC[C@H](C)O3)cc1` are “inactive” and “inactive”.
The corresponding values for `O=C(C[C@H]1C[C@@H]2c3cc(NS(=O)(=O)c4ccc(F)cc4)ccc3O[C@@H]2[C@H](CO)O1)N1CCOCC1` are “inactive” and “inactive”.
The like results for `C[C@@H]1CN([C@H](C)CO)C(=O)c2cccc(NS(C)(=O)=O)c2O[C@H]1CN(C)C(=O)Nc1ccc2c(c1)OCO2` were, in that order, “inactive” and “inactive”.
